Laboratory results published in PubChem BioAssay AID624171 (National Center for Advancing Translational Sciences (NCATS), 2012).
About 1,200 (0.29%) of roughly 410,000 compounds were called active. The inconclusive results got no clear call from the source; some entries with a clear call stand among them for comparison. The call rests on the fitted dose curve; in most records, active means well fitted activation curve with a large enough effect; inconclusive means small, poorly fitted or top-dose-only effect; inactive means flat fitted curve, though single readings scatter. A potency beside an inconclusive call is a rough fit, not a confirmed value.
Potency means the concentration at half of the fitted maximal effect; tags describe the fitted curve by direction and shape.

Test: qHTS of Nrf2 Activators; further: nearly all actives have a fitted effect of over 65% in size; on activation: % of control where 0% means no effect
Details: AREc32 ARE-luciferase reporter (MCF7-derived line), luminescence, 24 h; activation: at 46.1 µM (top of the series)
Procedure, shortened: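 Quantitative high-throughput format: AREc32 reporter cells, 1000 per well, received compound by pin transfer and were incubated 24 hr at 37 deg C, 5% CO2, before Steady-Glo luminescence detection.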
In the case of O=C(Cn1cnc2ccccc2c1=O)c1ccc(Cl)cc1, the “activation” value is reported as inactive: 5.8%.
In the case of O=[N+]([O-])c1ccc2nc(-c3ccccc3)oc2c1, the Potency is reported as inconclusive: 5.01 µM [activator, single point].
For CC(=O)c1ccc(N2CCN(S(=O)(=O)c3ccc4c5c3CC(=O)N5CC(C)S4)CC2)cc1 (centres undefined), the Potency was inconclusive: 15.8 µM [activator, single point].
In the case of O=C1Nc2ccccc2/C1=C/c1cnc(-c2ccccc2)[nH]1, the Potency is reported as inconclusive: 0.891 µM [activator, full curve, poor fit].
For O=C(Nc1nc2ccc(S(=O)(=O)N3CCCC3)cc2s1)c1ccccn1, the “activation” value was inactive: 0.165%.
With COc1cc(-c2nc(Cn3nnc(C(=O)Nc4ccccc4)c3C)c(C)o2)cc(OC)c1OC the “activation” value was inactive: 0.0228%.
For CSc1ccccc1NC(=O)CN(C)C(=O)COc1cccc2cccnc12, the Potency was inconclusive: 31.6 µM [activator, partial curve, poor fit].
For O=C(Nc1nc2ccsc2c(=O)s1)c1ccc(F)cc1, the Potency was inconclusive: 1.26 µM [activator, full curve, poor fit].
For COc1ccc(C=CC(=O)c2ccc(OC)c(OC)c2)cc1O, the Potency was inconclusive: 35.5 µM [activator, single point].
For O=c1oc2ccccc2cc1-c1nc2c(s1)CCc1ccccc1-2, the Potency was active: 3.98 µM.
With CCCc1cc(=O)n2[nH]c(-c3ccco3)nc2n1 the Potency was inconclusive: 17.8 µM [activator, single point].
With CCCC1=Nc2cc(C(=O)NC3CCCC3)ccc2Sc2ccc(C)cc21 the “activation” value was inactive: -0.932%.
In the case of CCOc1cc(-c2noc(N)c2C#N)cc(OCC)c1OCC, the Potency is reported as inconclusive: 15.8 µM [activator, single point].
For O=C(CN1C(=O)c2ccccc2S1(=O)=O)NCCSCc1ccco1, the Potency was inconclusive: 12.6 µM [activator, single point].
With O=C(O)/C=C/C(=O)c1c(-c2ccccc2)[nH]c2ccccc12 the Potency was active: 10 µM.
For O=C(CNC(=S)NC(=O)c1cccs1)c1ccccc1, the Potency was inconclusive: 17.8 µM [activator, single point].
For Clc1cccc(-c2nc(-c3ccccn3)no2)c1, the Potency was inconclusive: 0.562 µM [activator, full curve, poor fit].
With CCC1C(=O)C(CC)C(c2ccccc2)NC1c1ccccc1 (centres undefined) the “activation” value was inactive: -0.0978%.
For O=C(NCC1CCCO1)c1coc2nc3ccccc3nc12 (centres undefined), the “activation” value was inactive: 4.23%.
For Cn1c(SCC(=O)N/N=C/C=C/c2ccco2)nc2ccccc21, the Potency was inconclusive: 3.98 µM [activator, partial curve, poor fit].
With O=[N+]([O-])C(=C1Nc2ccccc2N1)C(Cl)=C(Cl)Cl the Potency was inconclusive: 11.2 µM [activator, partial curve].
With CC1(C)CC(=O)C(C=NCCN2CCN(C(=O)CCl)CC2)=C(O)C1 the Potency was inconclusive: 15.8 µM [activator, single point].
In the case of O=C(NNC(=O)c1sccc1-n1cccc1)c1cccc(Cl)c1, the Potency is reported as inconclusive: 7.08 µM [activator, partial curve, poor fit].
With NC(=O)c1c(NC(=O)c2ccco2)sc2c1CCC2 the Potency was inconclusive: 2.82 µM [activator, full curve, poor fit].
With Cc1ccc(S(=O)(=O)Nc2cccc3ncccc23)s1 the Potency was inconclusive: 5.01 µM [activator, single point].
For N#Cc1nc(-c2ccc(Cl)cc2)oc1NCc1ccco1, the Potency was inconclusive: 4.47 µM [activator, single point].
For CCCCc1nc2cc(C(=O)N3CCNC(=O)C3)ccc2o1, the “activation” value was inactive: 0.143%.
For COc1cc(Cl)c(C)cc1NC(=O)[C@@H]1CCCN1C(=O)c1cccs1, the Potency was inconclusive: 12.6 µM [activator, single point].
With COc1cc(/C=C/C2=CC(C)(C)NC(=S)N2)cc(OC)c1OC the Potency was inconclusive: 31.6 µM [activator, single point].
With Cc1ccc(S(=O)(=O)c2nnn3c2nc(NC(C)c2ccccc2)c2sccc23)cc1 (centres undefined) the “activation” value was inactive: 0.586%.
In the case of O=[N+]([O-])c1ccc(NN=Cc2ccco2)nc1, the Potency is reported as active: 0.891 µM.
In the case of CCC(Sc1nnc(C)n2c1cc1sccc12)C(=O)Nc1ccccc1F (centres undefined), the Potency is reported as inconclusive: 31.6 µM [activator, partial curve, poor fit].
In the case of O=C1/C(=C\c2ccc([N+](=O)[O-])cc2)CS(=O)(=O)C/C1=C/c1ccc([N+](=O)[O-])cc1, the Potency is reported as inconclusive: 5.62 µM [activator, single point].
In the case of O=C(Nc1ccc(Cl)cc1)C1=Cc2ccccc2OC1, the Potency is reported as inconclusive: 2.82 µM [activator, partial curve, poor fit].
In the case of Cc1ccc(C2=CC(c3cccs3)n3nnnc3N2)cc1 (centres undefined), the Potency is reported as inconclusive: 11.2 µM [activator, partial curve, poor fit].
In the case of Cc1nn(C)cc1CN(C)Cc1ccc(OCC(O)CN2CCCCC2)cc1 (centres undefined), the “activation” value is reported as inactive: 0.16%.
For C=CCSc1nnc2c(n1)-c1cccc3cccc-2c13, the Potency was active: 12.6 µM.
With Cc1cc(C(C)(C)C)cc(C)c1C[n+]1ccc2ccccc2c1 the “activation” value was inactive: -0.741%.
In the case of CC1=NN(c2ccc(C)c(C)c2)C(=O)C1C(c1cccc(O)c1)C1C(=O)N(c2ccc(C)c(C)c2)N=C1C (centres undefined), the Potency is reported as inconclusive: 31.6 µM [activator, single point].
For Cc1ccnc(NC(=S)NC(=O)c2cccs2)c1, the Potency was inconclusive: 14.1 µM [activator, partial curve, poor fit].
For CCN(CC)S(=O)(=O)c1ccc(N2CCCC2)c(NC(=O)c2ccc([N+](=O)[O-])o2)c1, the Potency was inconclusive: 5.62 µM [activator, single point].
With COc1ccccc1-c1ccc(/C=C2/C=C(CC(C)C)OC2=O)o1 the Potency was inconclusive: 17.8 µM [activator, single point].
In the case of N=c1c2c3c(sc2ncn1Nc1ccccc1)CCC3, the Potency is reported as inconclusive: 12.6 µM [activator, partial curve, poor fit].
For CCc1cccc(NC(=O)CSc2nc3ccsc3c(=O)n2CC)c1, the “activation” value was inactive: -0.389%.
With CCn1c(/C(C#N)=C/c2ccccc2Cl)nc2ccccc21 the Potency was inconclusive: 15.8 µM [activator, partial curve, poor fit].
With CCNc1cc2oc(=O)c(CN3CCOCC3)c(C)c2cc1C the “activation” value was inactive: -1.9%.
In the case of C=CCNS(=O)(=O)c1nc(C)c(Cl)c(C)c1C#N, the Potency is reported as active: 11.2 µM.
For CCc1ccccc1NC(=O)Nc1ccsc1C(=O)OC, the Potency was inconclusive: 11.2 µM [activator, partial curve].
With COc1cc2c(cc1OC)C(C)N(C(=O)Nc1ccccc1)CC2 (centres undefined) the “activation” value was inactive: 0.317%.
For COc1ccccc1NC(=O)c1ccc2oc(=O)c(S(=O)(=O)c3ccccc3)cc2c1, the Potency was inconclusive: 3.55 µM [activator, single point].
With Cc1sc(NC(=O)c2ccccc2F)c(CN2CCCCC2C)c1C (centres undefined) the Potency was active: 12.6 µM.
With Cc1cc(NC(=O)/C=C/c2ccco2)ccc1NC(=O)c1ccccc1 the Potency was inconclusive: 14.1 µM [activator, single point].
With O=C(CCl)Nc1cccc(S(=O)(=O)NC2=NCCCCC2)c1 the Potency was inconclusive: 3.55 µM [activator, single point].
For Cc1[nH]nc(C(=O)NN=Cc2ccccc2Cl)c1N=NN(C)C, the Potency was inconclusive: 12.6 µM [activator, partial curve].
For Nc1ccc2c(c1)Cc1c(F)cccc1-2, the Potency was active: 10 µM.
In the case of C/C(=N/Nc1ccc([N+](=O)[O-])cc1)c1c[nH]c2ccccc12, the Potency is reported as inconclusive: 11.2 µM [activator, single point].
In the case of Cc1ccc2c(c1)c(C1=NC(=S)NC1=O)c(O)n2C, the Potency is reported as inconclusive: 0.316 µM [activator, full curve, poor fit].
With Cc1ccc(S(=O)(=O)Nc2cccc3cccnc23)cc1 the Potency was inconclusive: 5.01 µM [activator, single point].
For COc1ccc(Nc2cnn(-c3nc4ccccc4s3)c(=O)c2Cl)cc1, the Potency was active: 10 µM.
In the case of S=C1NC2=C(CCCC2=C2SCCS2)C(c2ccccc2)N1 (centres undefined), the Potency is reported as active: 22.4 µM.
With Cc1cccn2c(=O)c3cc(C(=O)NCc4ccco4)c(=N)n(CCc4ccccc4)c3nc12 the “activation” value was inactive: 5.91%.
For COc1ccc(/C=C2\CCc3ccccc3C2=O)cc1OC, the Potency was inconclusive: 20 µM [activator, single point].
In the case of COc1ccc(CNC(=O)c2cccc(N3CCCS3(=O)=O)c2)cc1OC, the “activation” value is reported as inactive: -0.929%.
In the case of CCn1c(SCC(=O)N/N=C/C=C\c2ccco2)nc2ccccc21, the Potency is reported as active: 3.55 µM.
For COc1ccc2c(c1)CC/C(=C/c1ccncc1)C2=O, the Potency was active: 22.4 µM.
With CCOc1ccc(N(C)S(=O)(=O)c2ccc(C)c(C(=O)NCc3ccccc3OC)c2)cc1 the “activation” value was inactive: -0.169%.
With Cc1ccccc1NC(=S)N/N=C/c1ccc(O)cc1O the “activation” value was inactive: 2.23%.
In the case of Cc1nc(SCC(=O)c2cccc([N+](=O)[O-])c2)n[nH]1, the Potency is reported as inconclusive: 28.2 µM [activator, partial curve, poor fit].
For CC(=O)Nc1sc(N/N=C\c2ccccc2F)nc1-c1cccs1, the Potency was inconclusive: 17.8 µM [activator, partial curve, poor fit].
For N#Cc1ccsc1NC(=O)CSc1ncnc2ccccc12, the Potency was active: 12.6 µM.
With CCCCOC(=O)/C=C\C(=O)NC(N)=O the Potency was active: 15.8 µM.
For Cc1nc(C)c(/C(O)=C/c2nc3ccccc3oc2=O)s1, the Potency was inconclusive: 7.94 µM [activator, partial curve].
In the case of CC(=O)C1(O)CCC2C3CCC4CC(=O)CCC4(C)C3C(=O)CC21C (centres undefined), the “activation” value is reported as inactive: -0.811%.
With CCN=c1sc(C(=O)NCCc2ccccc2)cc(=O)n1CC the Potency was inconclusive: 31.6 µM [activator, single point].
